These results are taken from PMC12820563, “FoxP3 forms a head-to-head dimer in vivo and stabilizes its multimerization on adjacent microsatellites”.

The other results are listed elsewhere or left out.

In this assay the target is T1, MBP-FoxP1dN (Mus musculus, UniProt P58462 326-579).
T1 sequence: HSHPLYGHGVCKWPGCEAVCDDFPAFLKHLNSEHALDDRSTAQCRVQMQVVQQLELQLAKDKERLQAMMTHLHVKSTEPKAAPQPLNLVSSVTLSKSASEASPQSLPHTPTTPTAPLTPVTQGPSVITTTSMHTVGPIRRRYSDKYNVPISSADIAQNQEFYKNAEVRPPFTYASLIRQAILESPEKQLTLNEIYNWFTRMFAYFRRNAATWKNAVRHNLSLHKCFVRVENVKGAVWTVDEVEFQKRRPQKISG
In words: PD-seq (MBP pull-down with sequencing); 20 mM Tris-HCl pH 7.5, 100 mM NaCl, 1.5 mM MgCl2, 0.4 uM protein, 0.1 uM dsDNA library, 30 min, room temperature, amylose pull-down; high values mean tight binding. Particulars: protein: recombinant; tags: His6-MBP; chain copies: 2; dsDNA, one strand shown. In outline: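 Binding is the reads-per-million enrichment of pull-down relative to input, pooled across replicates. For this, 0.4 µM His6-MBP-tagged mouse FoxP3 or FoxP1 fragment lacking the N-terminus, made in E. coli, was incubated with 0.1 µM Klenow-filled double-stranded degenerate DNA library for 30 min at room temperature in Tris pH 7.5 buffer with NaCl and MgCl2. Complexes bound to amylose resin were washed three times before proteinase K released the DNA for PCR barcoding and Illumina sequencing.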
Take “GATGATTGTTCTCCCAGCTGATGAATTGATTCGGTCGAGTAAACAAATTTTCCTAATCTTTCTGTTCAAGCGCCATCTAC”: the binding signal is 0.987 RPM ratio (pull-down/input).

Consider “GATGATTGTTCTCCCAGCTGATGAATTTCTCACGTCGAGTAAACAAATTTTCCTAATCTTTCTGTTCAAGCGCCATCTAC”, for which the binding signal was 1.01 RPM ratio (pull-down/input).

As to “GATGATTGTTCTCCCAGCTGATGAATTAGATTCTTCGAGTAAACAAATTTTCCTAATCTTTCTGTTCAAGCGCCATCTAC”, the binding signal was 0.894 RPM ratio (pull-down/input).

Consider “GATGATTGTTCTCCCAGCTGATGAATTGTTGACATCGAGTAAACAAATTTTCCTAATCTTTCTGTTCAAGCGCCATCTAC”, for which the binding signal is 2.54 RPM ratio (pull-down/input).

Take “GATGATTGTTCTCCCAGCTGATGAATTGTACCCCTCGAGTAAACAAATTTTCCTAATCTTTCTGTTCAAGCGCCATCTAC”: the binding signal was 0.886 RPM ratio (pull-down/input).

As for “GATGATTGTTCTCCCAGCTGATGAATTTCAGGGATCGAGTAAACAAATTTTCCTAATCTTTCTGTTCAAGCGCCATCTAC”, the binding signal was 0.816 RPM ratio (pull-down/input).

“GATGATTGTTCTCCCAGCTGATGAATTTACTCGGTCGAGTAAACAAATTTTCCTAATCTTTCTGTTCAAGCGCCATCTAC”: the binding signal is 1.12 RPM ratio (pull-down/input).

As to “GATGATTGTTCTCCCAGCTGATGAATTGAGTATTTCGAGTAAACAAATTTTCCTAATCTTTCTGTTCAAGCGCCATCTAC”, the binding signal was 0.945 RPM ratio (pull-down/input).

In the case of “GATGATTGTTCTCCCAGCTGATGAATTCGACCCATCGAGTAAACAAATTTTCCTAATCTTTCTGTTCAAGCGCCATCTAC”, the binding signal was 0.804 RPM ratio (pull-down/input).

“GATGATTGTTCTCCCAGCTGATGAATTCCGAATCTCGAGTAAACAAATTTTCCTAATCTTTCTGTTCAAGCGCCATCTAC”: the binding signal is 0.802 RPM ratio (pull-down/input).

As to “GATGATTGTTCTCCCAGCTGATGAATTAATTAAGTCGAGTAAACAAATTTTCCTAATCTTTCTGTTCAAGCGCCATCTAC”, the binding signal was 0.998 RPM ratio (pull-down/input).

Turning to “GATGATTGTTCTCCCAGCTGATGAATTTACTTGTTCGAGTAAACAAATTTTCCTAATCTTTCTGTTCAAGCGCCATCTAC”, the binding signal is 1.3 RPM ratio (pull-down/input).

“GATGATTGTTCTCCCAGCTGATGAATTTCCCCTCTCGAGTAAACAAATTTTCCTAATCTTTCTGTTCAAGCGCCATCTAC”: the binding signal is 0.754 RPM ratio (pull-down/input).

Take “GATGATTGTTCTCCCAGCTGATGAATTGCAAGGTTCGAGTAAACAAATTTTCCTAATCTTTCTGTTCAAGCGCCATCTAC”: the binding signal is 1.02 RPM ratio (pull-down/input).

Consider “GATGATTGTTCTCCCAGCTGATGAATTAAACGCCTCGAGTAAACAAATTTTCCTAATCTTTCTGTTCAAGCGCCATCTAC”, for which the binding signal is 0.92 RPM ratio (pull-down/input).

With “GATGATTGTTCTCCCAGCTGATGAATTAATCACTTCGAGTAAACAAATTTTCCTAATCTTTCTGTTCAAGCGCCATCTAC”, the binding signal was 1.02 RPM ratio (pull-down/input).

Take “GATGATTGTTCTCCCAGCTGATGAATTTGGCTTCTCGAGTAAACAAATTTTCCTAATCTTTCTGTTCAAGCGCCATCTAC”: the binding signal was 0.859 RPM ratio (pull-down/input).

“GATGATTGTTCTCCCAGCTGATGAATTACTATATTCGAGTAAACAAATTTTCCTAATCTTTCTGTTCAAGCGCCATCTAC”: the binding signal is 1.23 RPM ratio (pull-down/input).

As for “GATGATTGTTCTCCCAGCTGATGAATTGACCATTTCGAGTAAACAAATTTTCCTAATCTTTCTGTTCAAGCGCCATCTAC”, the binding signal is 0.923 RPM ratio (pull-down/input).

Turning to “GATGATTGTTCTCCCAGCTGATGAATTCGTTTGTTCGAGTAAACAAATTTTCCTAATCTTTCTGTTCAAGCGCCATCTAC”, the binding signal was 0.998 RPM ratio (pull-down/input).

In the case of “GATGATTGTTCTCCCAGCTGATGAATTGCCTTATTCGAGTAAACAAATTTTCCTAATCTTTCTGTTCAAGCGCCATCTAC”, the binding signal was 1.05 RPM ratio (pull-down/input).

Turning to “GATGATTGTTCTCCCAGCTGATGAATTCTTTTTGTCGAGTAAACAAATTTTCCTAATCTTTCTGTTCAAGCGCCATCTAC”, the binding signal was 0.964 RPM ratio (pull-down/input).

Regarding “GATGATTGTTCTCCCAGCTGATGAATTTTTATCCTCGAGTAAACAAATTTTCCTAATCTTTCTGTTCAAGCGCCATCTAC”, the binding signal was 0.902 RPM ratio (pull-down/input).

On to “GATGATTGTTCTCCCAGCTGATGAATTCCGGTAGTCGAGTAAACAAATTTTCCTAATCTTTCTGTTCAAGCGCCATCTAC”, for which the binding signal was 0.777 RPM ratio (pull-down/input).

In the case of “GATGATTGTTCTCCCAGCTGATGAATTCTTACTATCGAGTAAACAAATTTTCCTAATCTTTCTGTTCAAGCGCCATCTAC”, the binding signal was 1.02 RPM ratio (pull-down/input).

With “GATGATTGTTCTCCCAGCTGATGAATTATTCTGCTCGAGTAAACAAATTTTCCTAATCTTTCTGTTCAAGCGCCATCTAC”, the binding signal was 0.977 RPM ratio (pull-down/input).

Turning to “GATGATTGTTCTCCCAGCTGATGAATTGCTACTATCGAGTAAACAAATTTTCCTAATCTTTCTGTTCAAGCGCCATCTAC”, the binding signal is 1.21 RPM ratio (pull-down/input).

Take “GATGATTGTTCTCCCAGCTGATGAATTAAGTCCATCGAGTAAACAAATTTTCCTAATCTTTCTGTTCAAGCGCCATCTAC”: the binding signal was 0.92 RPM ratio (pull-down/input).

Take “GATGATTGTTCTCCCAGCTGATGAATTGTCGTCTTCGAGTAAACAAATTTTCCTAATCTTTCTGTTCAAGCGCCATCTAC”: the binding signal is 1.1 RPM ratio (pull-down/input).

For “GATGATTGTTCTCCCAGCTGATGAATTGTCCAGGTCGAGTAAACAAATTTTCCTAATCTTTCTGTTCAAGCGCCATCTAC”, the binding signal is 0.838 RPM ratio (pull-down/input).

As to “GATGATTGTTCTCCCAGCTGATGAATTACTCCGCTCGAGTAAACAAATTTTCCTAATCTTTCTGTTCAAGCGCCATCTAC”, the binding signal was 0.875 RPM ratio (pull-down/input).

As to “GATGATTGTTCTCCCAGCTGATGAATTCCTTGACTCGAGTAAACAAATTTTCCTAATCTTTCTGTTCAAGCGCCATCTAC”, the binding signal was 0.771 RPM ratio (pull-down/input).
